Results on 19 molecules are retold here after the supplement of paper PMC10037445.

Each structure is given as a SMILES string. Over roughly 2,900 compounds, “NF-kB SEAP reporter activity, fold change vs agonist alone” has its median near 0.99; the highest 2% begin near 2.6. The list shows a part of the results.

For assay [1], the system named is RAW-Dual. The assay is described as follows: NF-kB SEAP reporter activity, fold change vs agonist alone; cytotoxicity flag (confluency mask): not cytotoxic; higher = enhanced NF-kB activity. An outline of the steps: (§1)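 Supernatant from RAW-Dual macrophages was read after 20 hours for IRF by QuantiLuc luminescence and for NF-κB by QuantiBlue absorbance at 620 nm. The cells (50,000 cells/well in DMEM, 384-well plates, 37 °C, 5% CO2) had received 50 nL of library stock by pin tool and, 1 h later, a PRR agonist. Reporter activity is expressed relative to agonist-alone wells as fold change, and wells were flagged cytotoxic if IncuCyte confluency was under 70% of agonist controls in both mask sets.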

Assay [2] has as its system RAW-Dual. As to the kind of experiment: NF-kB SEAP reporter activity, fold change vs agonist alone; higher = enhanced NF-kB activity. An outline of the steps: as §1
Assay [3] has as its system RAW-Dual. The assay is described as follows: NF-kB SEAP reporter activity, fold change vs agonist alone; cytotoxicity flag (confluency mask): cytotoxic (confluency <70% of control); higher = enhanced NF-kB activity. In short, it runs like this: as §1
Where [4] appears, read: agonist: ODN 1826 (TLR9) 0.5 ug/mL.
Setting [5] is: agonist: Pam2CSK4 (TLR2/6) 0.1 ug/mL.
Setting [6] is: agonist: Pam3CSK4 (TLR2/1) 0.1 ug/mL.
Setting [7] is: library stock concentration (final ~1000-fold dilution): 10 mM, cytotoxicity flag (confluency mask): not cytotoxic, agonist: Imiquimod (TLR7) […].
Where [8] appears, read: library stock concentration (final ~1000-fold dilution): 10 mM, cytotoxicity flag (confluency mask): not cytotoxic, agonist: MPLA (TLR4) […].

As to `CCCCS(=O)(=O)NC(Cc1ccc(OCCCCC2CCNCC2)cc1)C(=O)O.Cl.O` (stereo unspecified) (library stock concentration (final ~1000-fold dilution): 10 mM), the “NF-kB SEAP reporter activity” value came out at 1.18 in the assay on RAW-Dual [1] (agonist: LPS (TLR4) 0.1 ug/mL), 1.01 in the assay on RAW-Dual [1] (setting [4]), 0.988 with RAW-Dual [1] (setting [5]) and 1.24 in the assay with RAW-Dual [1] (setting [6]).

Turning to `Cl.OC(CCN1CCCCC1)(c1ccccc1)C1CCCCC1` (stereo unspecified) (library stock concentration (final ~1000-fold dilution): 10 mM), the “NF-kB SEAP reporter activity” value was 0.948 in the assay on RAW-Dual [1] (agonist: LPS (TLR4) 0.1 ug/mL), 0.904 with RAW-Dual [1] (setting [4]), 0.774 with RAW-Dual [1] (setting [5]) and 1.26 with RAW-Dual [1] (setting [6]).

Turning to `Cl.OC(CCN1CCCCC1)(c1ccccc1)C1CCCCC1` (stereo unspecified), the “NF-kB SEAP reporter activity” value amounted to 1.22 in the assay on RAW-Dual [2] (setting [7]) and 1.14 with RAW-Dual [2] (setting [8]).

Consider `CC1=C(CSC(=S)N2CCCCC2)C(=O)c2ccccc2C1=O`, for which the “NF-kB SEAP reporter activity” value stood at 0.943 in the assay with RAW-Dual [2] (library stock concentration (final ~1000-fold dilution): 10 mM, cytotoxicity flag (confluency mask): cytotoxic (confluency <70% of control), agonist: Imiquimod (TLR7) […]) and 1.14 with RAW-Dual [2] (library stock concentration (final ~1000-fold dilution): 10 mM, cytotoxicity flag (confluency mask): cytotoxic (confluency <70% of control), agonist: MPLA (TLR4) […]).

With `CC1=C(CSC(=S)N2CCCCC2)C(=O)c2ccccc2C1=O` (library stock concentration (final ~1000-fold dilution): 10 mM), the “NF-kB SEAP reporter activity” value in the assay on RAW-Dual [3] (agonist: LPS (TLR4) 0.1 ug/mL) was 0.241; with RAW-Dual [3] (setting [4]), 0.829; with RAW-Dual [3] (setting [5]), 0.876; in the assay with RAW-Dual [3] (setting [6]), 0.961.

In the case of `COc1cc(O)c(C(=O)Nc2nc(C(=O)NCCN(C(C)C)C(C)C)cs2)cc1OC.Cl.O.O.O` (library stock concentration (final ~1000-fold dilution): 10 mM), the “NF-kB SEAP reporter activity” value was determined as 1.43 with RAW-Dual [1] (agonist: LPS (TLR4) 0.1 ug/mL), 0.952 in the assay on RAW-Dual [1] (setting [4]), 0.95 with RAW-Dual [1] (setting [5]) and 1.01 in the assay with RAW-Dual [1] (setting [6]).

Turning to `COc1cc(O)c(C(=O)Nc2nc(C(=O)NCCN(C(C)C)C(C)C)cs2)cc1OC.Cl.O.O.O`, the “NF-kB SEAP reporter activity” value in the assay with RAW-Dual [2] (setting [8]) is 1.02.

Take `NC(CSC(c1ccccc1)(c1ccccc1)c1ccccc1)C(=O)O` (stereo unspecified): the results for the “NF-kB SEAP reporter activity” value with RAW-Dual [2] (setting [7]) and in the assay on RAW-Dual [2] (setting [8]) were 0.946 and 0.976, respectively.

For `NC(CSC(c1ccccc1)(c1ccccc1)c1ccccc1)C(=O)O` (stereo unspecified) (library stock concentration (final ~1000-fold dilution): 10 mM), the “NF-kB SEAP reporter activity” value in the assay with RAW-Dual [1] (agonist: LPS (TLR4) 0.1 ug/mL) turned out to be 0.775; in the assay with RAW-Dual [1] (setting [4]), 0.732; with RAW-Dual [1] (setting [5]), 0.699; with RAW-Dual [1] (setting [6]), 0.656.

Regarding `OCC(O)CN1CCN(c2ccccc2)CC1` (stereo unspecified) (library stock concentration (final ~1000-fold dilution): 10 mM), the “NF-kB SEAP reporter activity” value worked out at 0.917 in the assay with RAW-Dual [1] (agonist: LPS (TLR4) 0.1 ug/mL), 0.97 in the assay on RAW-Dual [1] (setting [4]), 1.03 in the assay with RAW-Dual [1] (setting [5]) and 1.12 in the assay with RAW-Dual [1] (setting [6]).

Take `OCC(O)CN1CCN(c2ccccc2)CC1` (stereo unspecified): the entries for the “NF-kB SEAP reporter activity” value in the assay with RAW-Dual [2] (setting [7]) and with RAW-Dual [2] (setting [8]) were 0.931 and 0.997, respectively.

Take `OCCc1ccc(O)cc1` (library stock concentration (final ~1000-fold dilution): 10 mM): the “NF-kB SEAP reporter activity” value with RAW-Dual [1] (agonist: LPS (TLR4) 0.1 ug/mL) was determined as 1.25; in the assay with RAW-Dual [1] (setting [4]), 1.09; in the assay on RAW-Dual [1] (setting [5]), 1.13; with RAW-Dual [1] (setting [6]), 1.03.

In the case of `OCCc1ccc(O)cc1`, the “NF-kB SEAP reporter activity” value in the assay with RAW-Dual [2] (setting [7]) came out at 0.881; in the assay on RAW-Dual [2] (setting [8]), 1.06.

In the case of `Cl.N=C(N)c1ccccc1`, the “NF-kB SEAP reporter activity” value in the assay on RAW-Dual [2] (setting [8]) came to 1.1.

On to `Cl.N=C(N)c1ccccc1` (library stock concentration (final ~1000-fold dilution): 10 mM), for which the “NF-kB SEAP reporter activity” value in the assay with RAW-Dual [1] (agonist: LPS (TLR4) 0.1 ug/mL) came to 1.02; in the assay on RAW-Dual [1] (setting [4]), 0.954; in the assay on RAW-Dual [1] (setting [5]), 1.1; in the assay on RAW-Dual [1] (setting [6]), 1.02.

Take `CCN(c1cc(-c2ccc(CN3CCOCC3)cc2)cc(C(=O)NCc2c(C)cc(C)[nH]c2=O)c1C)C1CCOCC1` (library stock concentration (final ~1000-fold dilution): 2 mM): the “NF-kB SEAP reporter activity” value in the assay on RAW-Dual [1] (agonist: LPS (TLR4) 0.1 ug/mL) was found to be 1.31; with RAW-Dual [1] (setting [4]), 0.964; with RAW-Dual [1] (setting [5]), 0.648; in the assay on RAW-Dual [1] (setting [6]) it was 0.835.

In the case of `CCN(c1cc(-c2ccc(CN3CCOCC3)cc2)cc(C(=O)NCc2c(C)cc(C)[nH]c2=O)c1C)C1CCOCC1`, the “NF-kB SEAP reporter activity” value in the assay on RAW-Dual [2] (library stock concentration (final ~1000-fold dilution): 2 mM, cytotoxicity flag (confluency mask): not cytotoxic, agonist: Imiquimod (TLR7) […]) stood at 0.913; in the assay with RAW-Dual [2] (library stock concentration (final ~1000-fold dilution): 2 mM, cytotoxicity flag (confluency mask): not cytotoxic, agonist: MPLA (TLR4) […]), 0.931.

As to `NC(N)=O`, the results for the “NF-kB SEAP reporter activity” value in the assay on RAW-Dual [2] (setting [7]) and in the assay on RAW-Dual [2] (setting [8]) were 1.12 and 1.03, respectively.

Regarding `NC(N)=O` (library stock concentration (final ~1000-fold dilution): 10 mM), the “NF-kB SEAP reporter activity” value in the assay with RAW-Dual [1] (agonist: LPS (TLR4) 0.1 ug/mL) was 0.868; in the assay on RAW-Dual [1] (setting [4]), 1.03; in the assay with RAW-Dual [1] (setting [5]), 0.987; in the assay with RAW-Dual [1] (setting [6]), 0.983.
